From PubChem BioAssay AID360 (National Center for Advancing Translational Sciences (NCATS), 2006)
Hit rate of the full screen: of about 48,000 compounds, about 550 (1.1%) were called active. Inconclusive results (about 4%) are left out. Cut-off read from the data, not from the text of the source: active = potency below about 15 µM; inconclusive = mostly about 16 µM to 33 µM; inactive = weaker than that. The list shows a part of the results.

What follows are compounds tested against Lysosomal acid glucosylceramidase (Homo sapiens) (UniProt P04062) (assay: Glucocerebrosidase). Settings: purified enzyme, resorufin glucoside fluorescence (screen aimed at inhibitors), 20 min.
How it was run: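 Wild-type enzyme at 0.2 nM final in 50mM citric acid/KH2PO4, 10mM sodium taurocholate, 0.01% tween-20, pH 5.9, with resorufin beta-D-glucopyranoside at 30 uM final. Compounds titrated, 20 min at RT, red fluorescence read; AC50 from titration.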
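Note: the screen sought inhibitors.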
Potency is the fitted concentration of half-maximal effect.

Chain of UniProt P04062 (P04062 whole entry, looked up): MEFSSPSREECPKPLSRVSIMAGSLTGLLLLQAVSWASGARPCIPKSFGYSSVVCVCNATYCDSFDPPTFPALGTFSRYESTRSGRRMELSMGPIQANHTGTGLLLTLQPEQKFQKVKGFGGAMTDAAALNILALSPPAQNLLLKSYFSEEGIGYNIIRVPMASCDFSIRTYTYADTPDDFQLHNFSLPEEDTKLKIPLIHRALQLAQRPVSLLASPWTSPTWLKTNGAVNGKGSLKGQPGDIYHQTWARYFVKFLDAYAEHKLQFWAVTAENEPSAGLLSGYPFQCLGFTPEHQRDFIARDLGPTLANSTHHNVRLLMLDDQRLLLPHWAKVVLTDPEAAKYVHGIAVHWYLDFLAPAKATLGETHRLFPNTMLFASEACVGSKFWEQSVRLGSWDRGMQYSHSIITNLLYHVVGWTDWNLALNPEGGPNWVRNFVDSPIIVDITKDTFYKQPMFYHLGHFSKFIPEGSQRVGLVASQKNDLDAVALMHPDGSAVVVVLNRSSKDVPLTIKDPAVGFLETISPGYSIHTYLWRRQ

Potency, active:
Cc1ccc(-c2[nH]n3c(=O)c4c(nc3c2C)CCCC4)cc1 8.05 µM

Potency, inactive:
Cc1nn(C(C)C(=O)N2CCc3ccccc3C2)c(=O)c2cc3occc3n12 (stereo not given) > 76.9 µM
Cc1ccc(Nc2nc(CSc3nnnn3-c3ccccc3)cs2)cc1
Cc1cnc(C(=O)OCC(=O)Nc2ccc(Cl)cc2)cn1 > 76.9 µM
O=C(Nc1ccc(NC(=O)c2cccs2)cn1)c1ccco1 > 76.9 µM
CCCN1C(=O)C(O)(CC(=O)c2ccc3c(c2)OCCO3)c2ccccc21 (stereo not given) > 76.9 µM
CCCCCn1c(CN(C)Cc2ccccc2)nc2c1c(=O)n(C)c(=O)n2C > 76.9 µM
CCC(CC)NC(=O)c1n[nH]c(=O)c2ccccc12 > 76.9 µM
CC(=O)N(c1ccc2oc(=O)sc2c1)S(=O)(=O)c1cccs1 > 76.9 µM
COCCNC(=O)CSc1nc2nc(C)cc(C)n2n1 > 76.9 µM
O=C1C(=O)N(CCN2CCOCC2)C(c2ccncc2)/C1=C(/O)c1ccc2c(c1)OCO2 (stereo not given) > 76.9 µM
Cc1[nH]nc2c1C1(CCOC1C)C(C#N)=C(N)O2 (stereo not given) > 76.9 µM
O=C(NC1C=CS(=O)(=O)C1)c1sc2ccccc2c1Cl (stereo not given) > 76.9 µM
CSc1nc(NC(C)(C)C)nc(Oc2ccc(=O)[nH]n2)n1 > 76.9 µM
CN(C)c1ccc(C2=NOC(CN3C(=O)c4ccccc4S3(=O)=O)C2)cc1 (stereo not given) > 76.9 µM
O=C(NCCc1ccc(Cl)cc1)C1CCN(S(=O)(=O)N2CCCC2)CC1 > 76.9 µM
COc1ccc(OC)c(C2c3c(oc4ccccc4c3=O)C(=O)N2CCCN(C)C)c1 (stereo not given) > 76.9 µM
CC(C)NC(=O)c1ccccc1NC(=O)c1ccccc1N(C)S(C)(=O)=O > 76.9 µM
N#CCC(=O)Nc1ncn(Cc2ccccc2Cl)n1 > 76.9 µM
COc1ccc(NC(=O)C2CC2)cc1-n1cnnn1 > 76.9 µM
Cc1noc(C)c1CSc1nnc(-c2cc(Cl)ccc2Cl)n1N > 76.9 µM
Cc1ccc(NC(=O)C2CC(c3ccc(F)cc3)=NO2)cc1 (stereo not given) > 76.9 µM
CCOC(=O)N1CCN(C(=O)c2ccc3c(=O)n(CCOC)c(=O)[nH]c3c2)CC1 > 76.9 µM
COc1ccc(NC(=O)Cn2nnc(C(=O)NCc3cccc(OC)c3)c2N)cc1 > 76.9 µM
COc1ccc2cc3cc(C(=O)NCCN4CCc5ccccc5C4)oc3nc2c1 > 76.9 µM
O=C(Nc1nsc(-c2ccccc2)n1)c1cccs1
Cc1ccc(-n2nc3c([n+]2[O-])CCc2c-3no[n+]2[O-])cc1 > 76.9 µM
CCOC(=O)c1cnc(Nc2nc3ccccc3o2)nc1CN1CCN(c2ccccc2)CC1 > 76.9 µM
N#C/C(=C/N1CCOCC1)c1ccccc1 > 76.9 µM
O=C(NCc1ccccn1)c1cc2n(n1)C(C(F)(F)F)CC(c1ccco1)N2 (stereo not given) > 76.9 µM
Cc1ccc(Nc2nc(C)cc(C)n2)c(Br)c1 > 76.9 µM
O=C(COc1ccc(S(=O)(=O)N2CCCCC2)cc1)N1CCCCCC1 > 76.9 µM
O=C(Nc1cccc(F)c1)NC1CCCCC1 > 76.9 µM
CCOC(=O)CSc1nc2c(sc(=S)n2Cc2ccco2)c(=O)n1-c1ccc(F)cc1 > 76.9 µM
Cc1cc2oc(=O)cc(COC(=O)c3cccc(N(C)C)c3)c2cc1C > 76.9 µM
O=C(NC12CC3CC(CC(C3)C1)C2)c1cnccn1 > 76.9 µM
COc1cccc(OC)c1C(=O)Nc1cccc(C(C)=O)c1 > 76.9 µM
O=C(CN1CCCCC1)Nc1ccccc1NC(=O)CN1CCCCC1 > 76.9 µM
CCOCCCNC(=O)C(NC(=O)c1ccccn1)c1ccc(C)cc1 (stereo not given) > 76.9 µM
CCc1ncc(C(O)c2cccc3ccccc23)n1C (stereo not given) > 76.9 µM
CC(=O)Nc1ccc(C(=O)N2CCN(C(=O)c3ccco3)CC2)cc1 > 76.9 µM
Cc1nn2c(-c3cccc(NC(=O)c4ccco4)c3)nnc2c2ccccc12 > 76.9 µM
CCCC(c1nnnn1CC(=O)OCC)N(Cc1cc2c(C)cc(C)cc2[nH]c1=O)C1CCCC1 (stereo not given) > 76.9 µM
O=C(CN1C(=O)NC2(CCc3ccccc32)C1=O)c1ccc2c(c1)OCCO2 (stereo not given) > 76.9 µM
Cc1noc(C)c1C(=O)NCc1ccco1 > 76.9 µM
CCN1C(=O)Cc2cc(S(=O)(=O)N3CCOCC3)ccc21 > 76.9 µM
COC(=O)C1=C(C)NC(C)=C(C(=O)OC)C1C(=O)OCCN1C(=O)c2ccccc2C1=O > 76.9 µM
CCN(CC(=O)NC(C)C)C(=O)c1ccc(S(=O)(=O)N(C)c2ccccc2OC)cc1 > 76.9 µM
CCn1c(SCC(=O)Nc2ccccc2)nnc1-c1ccc(S(=O)(=O)N2CCOCC2)cc1 > 76.9 µM
O=C1c2ccccc2-c2nc3ncnn3c(-c3ccccc3)c21 > 76.9 µM
O=C1NCCN1C(=O)c1ccccc1F > 76.9 µM
Cc1nc2ccccn2c1/C(O)=C1\C(=O)C(=O)N(CCCn2ccnc2)C1c1ccncc1 (stereo not given) > 76.9 µM
CCn1c(SCC(=O)NCc2ccc(C)cc2)nnc1-c1ccncc1 > 76.9 µM
CCCc1[nH]nc2c1C(c1ccc(OCCN3CCOCC3)c(OCC)c1)C(C#N)=C(N)O2 (stereo not given) > 76.9 µM
CS(=O)(=O)N(CC(=O)NC1CCCCC1)c1cccc(Cl)c1 > 76.9 µM
CCn1c(SCC(=O)Nc2cc(NC(C)=O)ccc2OC)nnc1-c1cccnc1 > 76.9 µM
CCCCCN(C(=O)NC(=O)Nc1ccccc1OC)S(C)(=O)=O > 76.9 µM
COc1ccc(Cl)cc1NC(=O)CN1C(=O)CSC1=O > 76.9 µM
CCOC(=O)c1ccc(NC(=O)Cn2nnc(-c3ccc(C)cc3)n2)cc1 > 76.9 µM
CCOc1nc(C)ccc1-c1noc(-c2ccco2)n1 > 76.9 µM
Clc1ccc(OCCCn2cncn2)cc1Cl > 76.9 µM
CC(C)=CCc1c(C)nc2ccccc2c1C(=O)O > 76.9 µM
CCSc1nc(-c2ccc(OC)cc2)ccc1C#N > 76.9 µM
C[C@H](NC(=O)Nc1cccc(C(F)(F)F)c1)C(=O)O > 76.9 µM
NS(=O)(=O)c1ccc(NS(=O)(=O)c2cccs2)cc1 > 76.9 µM
COCC(C)NC(=O)NC(=O)c1ccc(Cl)cc1 (stereo not given) > 76.9 µM
COc1cc(C(=O)NCCC(=O)NC2CCCCCCC2)cc(OC)c1OC > 76.9 µM
O=C(C1CC1)n1cc(C(=S)N2CCOCC2)c2ccccc21 > 76.9 µM
CCOC(=O)c1c(C)oc2ccc(OC(=O)N3CCOCC3)cc12 > 76.9 µM
Cc1ccc2nsnc2c1S(=O)(=O)N1CCN(Cc2ccc3c(c2)OCO3)CC1 > 76.9 µM
CCOC(=O)CSc1nc2cc(OC)ccc2cc1C#N > 76.9 µM
CC12C(=O)N(c3ccccc3C(=O)O)C(=O)C1C1C=CC2C1 (stereo not given) > 76.9 µM
CN1CCN(C(=O)c2ccccc2-c2ccccc2C(=O)O)CC1 > 76.9 µM
CCOC(=O)C1C(=O)NC(N2CCOCC2)=NC1c1ccco1 (stereo not given) > 76.9 µM
CCOc1ccccc1-n1nnnc1SCc1nc2ccccc2s1 > 76.9 µM
O=C(c1ccco1)N1CCN(Cc2cccc(F)c2)CC1 > 76.9 µM
CC1CCN(C(=O)Cn2nc(C(F)(F)F)c3c2CCCC3)CC1 > 76.9 µM
Cc1cc(NC(=O)c2cc3nc(C4CC4)cc(C(F)(F)F)n3n2)no1 > 76.9 µM
O=C(CCNC(=O)Cn1ccc2ccccc2c1=O)NCCCN1CCN(c2ccc(F)cc2)CC1 > 76.9 µM
O=C(NCc1ccccn1)c1ccc(CS(=O)(=O)Cc2ccc(Cl)cc2)o1 > 76.9 µM
COc1ccc(C2C3=C(OC(C)=O)c4ccccc4C3=Nc3c2c(=O)n(C)c(=O)n3C)cc1 (stereo not given) > 76.9 µM
Cc1ccc(S(=O)(=O)n2nc(C)c(Br)c2C)c(C)c1C > 76.9 µM
CCOc1cc2[nH]c(=O)n(CCC(=O)N3CCN(c4ccccc4OC)CC3)c(=O)c2cc1OCC > 76.9 µM
Cc1cc(S(=O)(=O)N2CCN(c3ccccc3C)CC2)ccc1F > 76.9 µM
COc1c(N2CCNC(C)C2)c(F)cc2c(=O)c(C(=O)O)cn(C3CC3)c12 (stereo not given) > 76.9 µM
COc1ccc(N(C(=O)c2cccnc2)S(=O)(=O)c2ccc3c(c2)n(C)c(=O)n3C)cc1 > 76.9 µM
COc1cc2nc(CN3CCN(c4ncc(C(F)(F)F)cc4Cl)CC3)[nH]c(=O)c2cc1OC > 76.9 µM
Cc1csc(Cn2c(CN(C)C)nc3ccccc3c2=O)n1 > 76.9 µM
CCC(C)(C)NC(=O)CN(C(=O)CNS(=O)(=O)c1ccccc1)c1ccccc1
CCOC(=O)c1[nH]c(CSc2nnnn2-c2ccccc2C)c(C(=O)OCC)c1C > 76.9 µM
